According to the RNAGym collection of RNA variant scans (doi:10.7554/elife.90254):
Read counts are not given, so values of variants with three or more changes are uncertain.

B1: OR4K15 (parent)
chain: GUUAACGGUCAUAGGCCAUGGAAACUAGGAGCACCAUUUCGCUGCCAGUGAAGAAAUGAACAAAGAAAAUCUGGGCCAGGCAGGCAUCAAAAGAAAUAGUCUUGCGCUCAACCAGAAAGUCUGUAAUCAUUUUAAGGGUA

Variants of: B1
Experiment: self-cleavage, relative activity (ratio to wild type); higher = more cleavage; in vitro, sequencing; the parent is a self-cleaving ribozyme
With GUUGACGGUCAUAGGCCAUGGAAACUAGGAGCACCAUUUCGCUGCCAGUGAAGAAAUGAACAAAGAAAAUCUGGGCCAGGCAGGCAUCAAAAGAAAUAGUCUUGCGCUCGACCAGAAAGUCUGUAAUCAUUUUAAGGGUC the self-cleavage was 0.26.
Variant GUUGACGGUCAUAGGCCAUGGAAACUAGGAGCACCAUUUCUCUGCCAGUGAAGAAAUGAACAAAGAAGAUCUGGGCCAGGCAGGCAUCAAAAGAAAUAGUCUUGCGCUCAACCAGAAAGUCUGUAAUCAUUUUAAGGGUA has a self-cleavage of 0.2.
For GUUGACGGUCAUAGGCCAUGGAAACUAGGAGCACCAUUUCGCUGCCAGUGAAGCAAUGAACAAAGAAAAUCUGGGCCAGGCAGGCAUCAAAAGAAAUAGUCUUGCGCUCAACCAGAAAGUCUGUAAUCAUUCUAAGGGUA, the self-cleavage was 0.76.
GUUGACGGUCAUAGGCCAUGGAAACUAGGAGCACCAUUUCGCUGCCAGUGAAGAAAUGGACAAAGAAAAUCUGGGCCAGGCAGGCAUCAAAAGAAAUAGUCUUGCGCUCAGCCAGAAAGUCUGUAAUCAUUUUAAGGGUA gave a self-cleavage of 0.32.
GUUGACGGUCAUAGGCCAUGGAAACUAGGAGCACCAUUUCGCUGCCAGUGAAGAAAUGAACAAAGAAAAUCUGGGCCGGGCAGGCAUCAAAGGAAAUAGUCUUGCGCUCAACCAGAAAGUCUGUAAUCAUUUUAAGGGUA gave a self-cleavage of 0.43.
For GUUGACGGUCAUAGGCCAUGGAAACUAGGAGCACCAUUUCGCUGCCAGUGAAGGAACGAACAUAGAAAAUCUGGGCCAGGCAGGCAUCAAAAGAAAAAGUCUUGCGCUCAACCAGAAAGUCUGUAAUCAUUUUAAGGGUA, the self-cleavage was 1.75.
Work on GUUGACGGUCAUAGGCCAUGGAAACUAGGAGCACCAUUUCGCUGCCAGUGAGGUAAUGAACAAAGAAAAUCUGGGCCAGGCAGGCAUCAAAAGAAAUAGCCUUGCGCUCGACCAGAAAGUCUGUAAUCAUUUUAAGGGUA yielded a self-cleavage of 0.36.
In the case of GUUGACGGUCAUAGGCCAUGUGGACUAGGAGCACCAUUUCGCUGCCAGUGAAGAAAUGAACAAAGAAAAUCUGGGCCAGGCAGGCAUCAAAAGAAAUAGUCUUGCGCUCAACCAGAAAGUCUGUAAUCAUUUUAAGGGUA, the self-cleavage is reported as 1.14.
GUUGACGGUCAUAGGCCAUGGAAACUAGGAGCACCAUUUCGCUGCCAGUGAGGAAAUGAACAGAGAAAAUCUGGGCCAGGCAGGCAACAAAAGAAAUAGUCUUGCGCUCAACCAGAAAGUCUGUAAUCAUUAUAAGGGUA gave a self-cleavage of 1.99.
Work on GUUGACGGUCAUAGGCCAUGGAAACUAGGAGCACCAUUUCGCUGCCAGUGAAGAGAUGCACAAAGAAAAUCUGGGCCAGGCAGGCAUCAAAAGAAAUAGUCUCGCGCUCAACCAGAAAGUCUGUAAUCAUUUUAAGGGUA yielded a self-cleavage of 0.91.
Work on GUUGACGGUCAUAGGCCAUGGAAACUAGGAGCACCAUUUCGCUGCCAGUGAAGAAAUGAAUAAAGAAAAUCUGGGCCAGGCAGGCACCCAAAGAAAUAGUCUUGCGCUCAACCAGAAAGUCUGUAAUCAUUUUAAGGGUA yielded a self-cleavage of 0.87.
For GUUGACGGUCAUAGGCCAUGGAAAAUGGGAGCACCAUUUCGCUGCCAGUGAAGAAAUGAACAAAGAAAAUCGGGGCCAGGCAGGCAUCGAAAGAAAUAGUCUUGCGCUCAACCAGAAAGUCUGUAAUCAUUUUAAGGGUA, the self-cleavage was 0.42.
For GUUGACGGUCAUAGGCCAUGGAAACUAGGAGCACCAUUUCGCUGCCAGUGAAGAAAUGAACAAAGAAAAUCUGGGCCAGGCAGGCAUCAAAUGAAUUAGUCUUGCGCUCAACCAGAAAGUCUGUAAUCGUUUUAAGGGUA, the self-cleavage was 1.58.
GUUGACGGUCAUAGGCCAUGGAAACUAGGAGCACCAUUUCGCUGCCAGUGAAGGAAUGAACAAAGAAAAACUGGGCCAGGCAGGCAUCAAAAGAAAUAGUCUUGCGCUCAACCAGAAAGUCUGUAAUCAUUUUAAGGGUA showed a self-cleavage of 0.68.
Variant GUUGACGGUCAUAGGCCAUGGAAACUAGGAGCACCAUUUCGCUGCCGGUGAAGAAAUGAACAAAGAAAAUCUGGGCCAGGCGGGCAUCAAAAGAAAUUGUCUUGCGCUCAACCAGAAAGUCUGUAAUCAUUUUAAGGGUA has a self-cleavage of 1.41.
Variant GUUGACGGUCAUAGGCCAUGGAAACUAGGAGCACCAUUUCGCUGCCAGUGAGGAAAUGAACAAAGAAGAUCUGGGCCAGGCAGGCAUCAAAAGAAAUAGUCUUGCGCUCAACCAGAAAGUCUGUAAUCAUUUUAAGGGUA has a self-cleavage of 1.08.
GUUGACGGUCAUAGUCCAUGGAAACUAGGAGCACCAUUUCGCUGCCAGUGAAGAAAUGAACAAAGAAAAUCUGGGCCAGGCAGGCAUCAAAAGGAAUAGUCUUGCGCUCAACCAGAAAGUCUGUAAUCAUUUUAAGGGUA gave a self-cleavage of 0.77.
Work on GUUGACGGUCAUAGGCCAUGGAAACUAGGAGCACCAUUUCGCUGCCAGUGAAGAAAUGAACAAAGAAAAUCUGGGCCAGGCAGGCAUCAAAAGAAAUAGUCUUGCGCUCCACCAGAAAGUCUGUAACCAUUUUAAGGGUA yielded a self-cleavage of 0.31.
For GUUGACGGUCAUAGGCCAUGGAAACUAGGAGCACCAUUUCGCUGCCAGUGAAGAAAUGAACAAAGAGAAUCUGGGCCAGGCAGGCAUCAAAAGAAAUAGUCUUGCGCUCAACCAGAGAGUCUGUAAUCAUUUUAAGGGUA, the self-cleavage was 1.06.
GUUGACGGUCAUAGGCCAUGGAAACUAGGAGCACCAUUUCGCUGCCAGUGUAGUAAUGAACGAAGUAAAUCUGGGCCAGGCAGGCAUCAAAAGAAAUAGUCUUGCGCUCAACCAGAAAGUCUGUAAUCAUUUUAAGGGUA showed a self-cleavage of 1.26.
GUUGACGGUCAUAGGCCAUGGAAACUAGGAGCACCAUUUCGCUGCCAGUGAAGAAAUGGACAAAGAAAAUCUGGGCCAGGCAGGCAUCAAAAGAAAUAGUCUUGCGCUCAACCUGAAUGUCUGCAAUCAUUUUAAGGGUA showed a self-cleavage of 0.07.
GUUGACGGUCAUAGGCCAUGGAAACUAGGAGCACCAUUUCGCUGCCAGUGAAGAAAUGAACAAAGAAAAUCUGGGCCAGGCAGGCAUCAAAGGAAAUAGUCUUGCGCUCAACCAGAAGGUCUGUAAUCAUUUUAAGGGUA showed a self-cleavage of 0.89.
Work on GUUGACGGUCAUAGGCCAUGGAAACUAGGAGCACCAUUUCGCUGCCAGUGAAGAAAUGAACAAAGAAAAUCUGGGCCAGGCAGGUAUCUAAAGAAAUUGUCUUGCGCUCAACCAGAAAGUCUGUAAUCAUUUUAAGGGUA yielded a self-cleavage of 0.75.
Variant GUUGACGGUCAUAGGCCAUGGAAACUAGGAGCACCAUUUCGCUGCCAGUGAAGAAAUGAACAAAGAAAAUCUGGGCCUGGCAGGCAUCAAAAGAAAUAGUCUUGCGAUCAACCAGAAAGUCUGUAAUCAUUUUAAGGGUA has a self-cleavage of 0.04.
For GUUGACGGUCAUAGGCCAUGGAAACUAGGAGCACCAUUUCGCUGCCAGUGAAGAAAUGAACAAAGAAAAUCUGGGCCCGGCAGGUAUCAAAAGAAAUAGUCUUGCGCUCAACCAGAAAGUCUGUAAUCAUUUUAAGGGUA, the self-cleavage was 0.3.
Variant GUUGACGGUCAUAGGCCAUGGAAACUAGGAGCACCAUUUCGCUGCCAGUGAAGAAAUGAACAGAGAAAAUCUGGGCCAGGCAGGCAUCAAAAGAAAUAGUCUUGCGCUCAACCAGAAAGUCUGUAACCAUUUUAAGGGUA has a self-cleavage of 0.43.
Variant GUUGACGGUCAUAGGCCAUGGAAACUAGGAGCACCAUUUCGCUGCCAGUGAAGAAAUGAAUAGAGAAAGUCUGGGCCAGGCAGGCAUCAAAAGAAAUAGUCUUGCGCUCAUCCGGAAAGUCAGUAAUCAUUUUAAGGGUA has a self-cleavage of 0.02.
With GUUGACGGUCAUAGGCCAUGGAAACUAGGAACACCAUUUCGCUGCCAGUGAAGAAAUGAACAAAGAAAAUCUGGGCCAGGCAGGCAACAAAAGAAAUAGUCUUGCGCUCAACCAGAAAGUCUGUAAUCAUUUUAAGGGUA the self-cleavage was 0.94.
In the case of GUUGACGGUCAUAGACCAUGGAAACUAGGAGCACCAUUUCGCUGCCAGUGAAGAAAUGAACCAAGAAAAUCUGGGCCAGGCGGGCAUCAAAAGAAAUGGUCUUGCGCUCAACCAGAAGGUCUGUAAUCAUUUUAAGGGUA, the self-cleavage is reported as 0.16.
Work on GUUGACGGUCAUAGGCCAUGGAAACUAGGAGCACCAUUUCGCUGCCAGUGGAGAAAUGAACAAAGAAAAUCUGGGCCAGGCAGGCAUCAAAAGAAAUAGUCUUGCGCUCAACCAGAAUGUCUGUAAUCAUUUUAAGGGUA yielded a self-cleavage of 0.35.
GUUGACGGUCAUAGGCCAUGGAAACUAGGAGCACCAUUUCGCUGCCAGUGAGGAAAUGGACAGAGAAAAUCAGGGCCAGGCAGGCAACAAAAGAAAUAGUCUUGCGCUCAACCAGAAAGUCUGUAAUCAUUUUAAGGGUA gave a self-cleavage of 0.43.
In the case of GUUGACGGUCAUAGGCCAUGGAAACUAGGAGCACCAUUUCGCUGCCAGUGAAGAAGUGAACAGAGAAAAUCUGGGCCAGGCAGGCAUCAAAAGAAAUAGUCCUGCGCUCAACCAGGAAGUCUGUAAUCAUUUUAAGGGUA, the self-cleavage is reported as 1.87.
With GUUGACGGUCAUAGGCCAUGGAAACUAGGAGCACCAUUUCGCUGCCAGUGAAGAAAUGAGCAAAGAAAACCUGGGCCAGGCAGGCAUCAAAAGAAAUAGUCUUGCGCUCAACCAGAAAGUCUGUAAUCAUUUUAAGGGUA the self-cleavage was 0.24.
GUUGACGGUCAUAGGCCAUGGAAACUAGGAGCACCAUUUCGCUGCCAGUGAAGAAAUGAACAAAGAAAAUCUGGGCUAGGCAGGCAUCAAAAGAAAUAGUCUUGCGCUCAACCGGAAAGUCUGUAAUCAUUUUAAGGGUA showed a self-cleavage of 1.27.
With GUUGACGGUCAUAGGCCAUGGAAACUAGGAGCACCAUUUCGCUGCCAGUGAAGAAAUGAACAAAGAAAAUCUGGGCCAGGCAGGCAUCAAAGGAAAUAGUCUUGCGCUCAACCAGACAGUCUGUAAUCAUUUUAAGGGUA the self-cleavage was 0.78.
GUUGACGGUCAUAGGCCAUGGAAACUAGGAGCACCAUUUCGCUGCCAGUGAAGAAAUGAACAAAGAAAAUCUGGGCCAGGCAGGCAUCAAAAGAAAUAGUCUUGCGCUCAGCCAGAAAGUCUGUAAUCAUCUAAAGGGUA gave a self-cleavage of 0.02.
For GUUGACUGUCAUAGGCCAUGGAAACUAGGAGCACCAUUUCGCUGCCAGUGAAGAAAUGAACAAAGAAAAUCUGGGCCAGGCAGGCAUCGAAAGAAAUAGUCUUGCGCUCAACCAGAAAGUCUGUAAUCAUUUUAGGGGUA, the self-cleavage was 1.54.
In the case of GUUGACGGUCAUAGGCCAUGGAAACUAGGAGCACCAUUUCGCUGCCAGUGAAGAAAUGAACAGGGAAAAUCUGGGCCAGGCAGGCACCAAAAGAAAUAGUCUUGCGCUCAACCAGAGAGUCUGUAAUCAUUUUAAGGGUA, the self-cleavage is reported as 2.16.
For GUUGACGGUCAUAGGCCAUGGAAACUAGGAGCACCAUUUCGCUGCCAGUGAAGGAAUGAACAAAGAAAAUCUGGGCCAGGCAGGCAUCAAAAGAAAUAGUCUUGCGCUCAACCAGAAAGUCUGUAAUCAUUCUAAGGGUA, the self-cleavage was 1.16.
GUUGACGGUCAUAGGCCAUGGAAACUAGGAGCACCAUUUCGCUGCCAGUGAAGAAGUGAACAAAGAAAAUCUGGGCCGGGCAGGCAUCAAAAGAAAUAGUCUUGCGCUCAACCAGAAAGUCUGUAAUCAUUUUAAGGGUA showed a self-cleavage of 0.68.
Work on GUUGACGGUCAUAGGCCAUGGAAACUAGGAGCACCAUUUCGCUGCCAGUGAAGAAAUGUACAAAGAAAGUCUGGGCCAGGCAGGCAUCAAAAGAAAUAGUCUUGCGCUCAACCAGAAAGUCUGUAAUCAUUCUAAGGGUA yielded a self-cleavage of 0.8.
